# Test results reported in PubChem BioAssay AID651820 (National Center for Advancing Translational Sciences (NCATS), 2012).
# The whole screen tested about 340,000 compounds, of which about 12,000 (3.5%) were called active. Calls come from the whole dose curve; as a rule, active = well fitted inhibition curve with a large enough effect; inconclusive = small, poorly fitted or top-dose-only effect, or another doubt; inactive = no such curve, though single readings can be large or run the other way. Inconclusive means that the source gave no clear call. Potencies of inconclusive entries are left out as doubtful fits.
# Assay: qHTS Assay for Inhibitors of Hepatitis C Virus (HCV)
# Settings: Huh7.5.1 HCVcc-Cre (HCVcc is cell-culture hepatitis C virus) infection, luciferase reporter, 44 h; series mostly up to 41.8 µM
# Source text: Hepatitis C virus (HCV) infects about 200 million people in the world. Many infected people progress to chronic liver disease including cirrhosis with a risk of developing liver cancer. To date, there is no effective vaccine for hepatitis C. Current therapy based on interferon is only effective in about half of the patients and is associated with significant adverse effects. The fraction of people with HCV who can complete a successful treatment is estimated to be no more than 10 percent. Recent development of direct-acting antivirals against HCV, such as protease and polymerase inhibitors, is promising but still requires combination with peginterferon and ribavirin for maximal efficacy. In addition, these agents are associated with high rate of resistance and many have significant side effects. Due to the lack of a culture system for infectious HCV, the search for new HCV drugs has been greatly hampered. […]
# The assay will start with plating 1,000 cells/well in 3 µL volume and culture for 4 h. […] A volume of 4.5 µL luciferase substrates will be added to each well and the plates will be incubated at room temperature for 15 min. and then read for 15 sec. for the luciferase activity
# Tags give direction and shape of the fitted curve.
row,Compound,Potency
1,CCCCCCc1c(C)c2ccc(OCC(=O)N[C@@H](Cc3ccccc3)C(=O)O)cc2oc1=O,"inconclusive [inhibitor, full curve, poor fit]"
